Data as given in the supplement of paper PMC12067230.
This is a noisy data set.

Assay: amyloid nucleation score relative to library mode (yeast Sup35 reporter selection) (log enrichment difference); higher = more amyloid nucleation; sequences are the first 22 residues of the Bri2 peptide extended by up to 12 random residues
Settings: random library (experiment): 1;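 active = nucleation score significantly above 0 at FDR 0.05; inactive = not significantly above 0 or absent from output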
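Note: [psi-pin-] Saccharomyces cerevisiae expressing SupN fusions, induced by 100 µM Cu2SO4, selected 7 d at 30 °C without adenine and uracil, scored by deep sequencing of output versus input.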

Sequence | amyloid nucleation score
EASNCFAIRHFENKFAVETLICHLPSCTPNTEVV | inactive
EASNCFAIRHFENKFAVETLICHLSVVSAFASMH | inactive
EASNCFAIRHFENKFAVETLICHLVDRV | inactive
EASNCFAIRHFENKFAVETLICHLWPALSVERLT | inactive
EASNCFAIRHFENKFAVETLICHMAGCYRVGPIE | 1.32
EASNCFAIRHFENKFAVETLICHMNS | 5.35
EASNCFAIRHFENKFAVETLICHMYVMTGVGMGC | 5.41
EASNCFAIRHFENKFAVETLICHN | 0.674
EASNCFAIRHFENKFAVETLICHNGMPHLSILSF | inactive
EASNCFAIRHFENKFAVETLICHNMDDSSILNVP | inactive
EASNCFAIRHFENKFAVETLICHNNWCISGGRLP | 7.77
EASNCFAIRHFENKFAVETLICHNRIRINFCRPE | 5.13
EASNCFAIRHFENKFAVETLICHP | inactive
EASNCFAIRHFENKFAVETLICHPKAMP | 0.348
EASNCFAIRHFENKFAVETLICHPLKGWLLIHSE | inactive
EASNCFAIRHFENKFAVETLICHPQAVYCEKWGC | 0.92
EASNCFAIRHFENKFAVETLICHPSDFHGNVYCT | inactive
EASNCFAIRHFENKFAVETLICHQDCV | inactive
EASNCFAIRHFENKFAVETLICHQMVQGRRGDTL | 2.64
EASNCFAIRHFENKFAVETLICHQRRRMNGRHRG | inactive
EASNCFAIRHFENKFAVETLICHQYLLSEFWFKV | inactive
EASNCFAIRHFENKFAVETLICHRCNYTPLSIRT | inactive
EASNCFAIRHFENKFAVETLICHRCYNYVCSASR | 3.29
EASNCFAIRHFENKFAVETLICHRDLI | 0.348
EASNCFAIRHFENKFAVETLICHRGVSNNYLIAW | inactive
EASNCFAIRHFENKFAVETLICHRLNVYWPHRDQ | 3.5
EASNCFAIRHFENKFAVETLICHRLRWNCSLEWS | inactive
EASNCFAIRHFENKFAVETLICHRLWTGKTSCLL | inactive

Sequence | amyloid nucleation score
EASNCFAIRHFENKFAVETLICHRRNCPLGQSTA | inactive
EASNCFAIRHFENKFAVETLICHRRVAVRGMRLV | inactive
EASNCFAIRHFENKFAVETLICHRRVHYVYCFPA | -0.0194
EASNCFAIRHFENKFAVETLICHRSMFFNARSTG | 3.89
EASNCFAIRHFENKFAVETLICHRSTNLRTDVCA | inactive
EASNCFAIRHFENKFAVETLICHRTRPMHYCVKP | 0.148
EASNCFAIRHFENKFAVETLICHRVGMHREVWHK | 0.713
EASNCFAIRHFENKFAVETLICHRVPMGQYTPAA | inactive
EASNCFAIRHFENKFAVETLICHRWIQWVRHLRY | inactive
EASNCFAIRHFENKFAVETLICHSAVSADVKCGV | inactive
EASNCFAIRHFENKFAVETLICHSAYSVWSRYC | 3.43
EASNCFAIRHFENKFAVETLICHSDSSYLFCDNR | 1.3
EASNCFAIRHFENKFAVETLICHSDWCWKMDLPC | inactive
EASNCFAIRHFENKFAVETLICHSFKSATSCRAS | 2.08
EASNCFAIRHFENKFAVETLICHSFMPEKSCEKQ | 5.51
EASNCFAIRHFENKFAVETLICHSFMRSWWSSRP | inactive
EASNCFAIRHFENKFAVETLICHSFRLNLRRKWG | inactive
EASNCFAIRHFENKFAVETLICHSGMCFWTAVWP | inactive
EASNCFAIRHFENKFAVETLICHSGRGARDAAWR | 2.07
EASNCFAIRHFENKFAVETLICHSGS | inactive
EASNCFAIRHFENKFAVETLICHSLFQIGGTFRW | 6.36
EASNCFAIRHFENKFAVETLICHSMTMSVVKCKK | 6.66
EASNCFAIRHFENKFAVETLICHSQNSRPFGSSC | inactive
EASNCFAIRHFENKFAVETLICHSQSGGYASYG | 0.946
EASNCFAIRHFENKFAVETLICHSRASFLVLCGT | inactive
EASNCFAIRHFENKFAVETLICHSRGFIQVVRRV | inactive
EASNCFAIRHFENKFAVETLICHSRLERRRFEWK | 5.06

Same assay, conditions: random library (experiment): 2

Sequence | amyloid nucleation score
EASNCFAIRHFENKFAVETLICHLNSVG | 1.44
EASNCFAIRHFENKFAVETLICHLRSLQNTWDG | inactive
EASNCFAIRHFENKFAVETLICHLSWNLALVDVS | inactive
EASNCFAIRHFENKFAVETLICHLTWNCMGMIDP | 0.852
EASNCFAIRHFENKFAVETLICHLVSNNFYYV | 8.47
EASNCFAIRHFENKFAVETLICHLWRCGLFVAGF | inactive
EASNCFAIRHFENKFAVETLICHMTGYQCVFVGC | inactive
EASNCFAIRHFENKFAVETLICHMVINYCVPERL | 8.13
EASNCFAIRHFENKFAVETLICHMWYLNEIMRCG | 0.511
EASNCFAIRHFENKFAVETLICHNSDRLCALWTE | 1.48
EASNCFAIRHFENKFAVETLICHNSSRRYKRGVH | 2.25
EASNCFAIRHFENKFAVETLICHNTKYLFKCECL | 4.46
EASNCFAIRHFENKFAVETLICHNVEVS | -0.0677
EASNCFAIRHFENKFAVETLICHPMTFIKCISKL | inactive
EASNCFAIRHFENKFAVETLICHQQKSGIIKLMC | inactive
EASNCFAIRHFENKFAVETLICHRAMYTSRGNKV | inactive
EASNCFAIRHFENKFAVETLICHRGIGELSLIGC | 3.45

Sequence | amyloid nucleation score
EASNCFAIRHFENKFAVETLICHRIPNFLCRFNR | -0.182
EASNCFAIRHFENKFAVETLICHRKSHTFVVFSR | inactive
EASNCFAIRHFENKFAVETLICHRMWKRDVPAE | 0.308
EASNCFAIRHFENKFAVETLICHRNSFSSRLGVF | inactive
EASNCFAIRHFENKFAVETLICHRSRLYMGDDYL | 3.46
EASNCFAIRHFENKFAVETLICHRVLQFI | 3.96
EASNCFAIRHFENKFAVETLICHRYVAHYIVLER | 2.68
EASNCFAIRHFENKFAVETLICHSCDLRSMRSGE | 1.15
EASNCFAIRHFENKFAVETLICHSELMITESIEW | 2.11
EASNCFAIRHFENKFAVETLICHSGTVVICGLFR | 8.3
EASNCFAIRHFENKFAVETLICHSLSHRIGYACV | inactive
EASNCFAIRHFENKFAVETLICHSLTCKGACL | inactive
EASNCFAIRHFENKFAVETLICHSLYLMCVRVMQ | inactive
EASNCFAIRHFENKFAVETLICHSMVIWWFGKLD | inactive
EASNCFAIRHFENKFAVETLICHSNEQNSRRSWL | 3.11
EASNCFAIRHFENKFAVETLICHSRGFKEPSV | inactive

Same assay, conditions: random library (experiment): 3

Sequence | amyloid nucleation score
EASNCFAIRHFENKFAVETLICHLQPCGEVGWYG | 5.63
EASNCFAIRHFENKFAVETLICHLRACRHLRVF | -0.127
EASNCFAIRHFENKFAVETLICHMEVRADVRYAA | 0.475
EASNCFAIRHFENKFAVETLICHMLLSVRMNWVM | inactive
EASNCFAIRHFENKFAVETLICHMTGMFNIKGMV | inactive
EASNCFAIRHFENKFAVETLICHMWN | 7.78
EASNCFAIRHFENKFAVETLICHNDFLRKVLARC | inactive
EASNCFAIRHFENKFAVETLICHNGDTDVPLAQG | inactive
EASNCFAIRHFENKFAVETLICHNGPLKCSGSRL | inactive
EASNCFAIRHFENKFAVETLICHNSVMFTNNRV | inactive
EASNCFAIRHFENKFAVETLICHNVSPSALGRRA | 4.7
EASNCFAIRHFENKFAVETLICHPLGCDGHDLPK | inactive
EASNCFAIRHFENKFAVETLICHPPDRFIEWFCS | 2.77
EASNCFAIRHFENKFAVETLICHQIPVGAMRILQ | inactive
EASNCFAIRHFENKFAVETLICHQWPSMVRLVHA | 0.64
EASNCFAIRHFENKFAVETLICHR | inactive

Sequence | amyloid nucleation score
EASNCFAIRHFENKFAVETLICHRGMVIRSYVER | 2.33
EASNCFAIRHFENKFAVETLICHRMNWMSEGSNL | 4.62
EASNCFAIRHFENKFAVETLICHRVAMTAFHNPK | 1.88
EASNCFAIRHFENKFAVETLICHRVGCVTQRESR | inactive
EASNCFAIRHFENKFAVETLICHRVVLGMVLWGS | inactive
EASNCFAIRHFENKFAVETLICHSAMWYVFTFTE | 5.57
EASNCFAIRHFENKFAVETLICHSCTDVDCNSVV | 4.65
EASNCFAIRHFENKFAVETLICHSDLPSTRNTLL | inactive
EASNCFAIRHFENKFAVETLICHSDSVGLHWLFD | inactive
EASNCFAIRHFENKFAVETLICHSDVVVRATGLL | inactive
EASNCFAIRHFENKFAVETLICHSFRFVSCNYCD | 6.42
EASNCFAIRHFENKFAVETLICHSKMSLLNSAS | inactive
EASNCFAIRHFENKFAVETLICHSMFVRRCCRIK | inactive
EASNCFAIRHFENKFAVETLICHSPGTYRINQAG | inactive
EASNCFAIRHFENKFAVETLICHSQPDSVWMLRA | inactive
